Over roughly 110,000 compounds, “z-score” has its median near -0.1; the highest 2% begin near 2. The list shows a part of the results. Calls of active or inactive are those of the source.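 The calls were made as follows: active = z-score in the third read window above 3 or below -3; inactive = the rest.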
These molecules were tested against Metabotropic glutamate receptor 8 (Rattus norvegicus) (UniProt P70579) (assay: mGluR8 Gi/Go-coupled signaling modulation – cell-based, rat, thallium flux, HTS, primary screen (AID 488969)). Conditions: HEK293 rat mGluR8, GIRK (G protein-gated inwardly rectifying potassium channel) thallium flux, FluoZin2; at 10 µM; stronger effect = higher value; submaximal glutamate (EC20) added with thallium.
Sequence of UniProt P70579 (P70579 whole entry, looked up): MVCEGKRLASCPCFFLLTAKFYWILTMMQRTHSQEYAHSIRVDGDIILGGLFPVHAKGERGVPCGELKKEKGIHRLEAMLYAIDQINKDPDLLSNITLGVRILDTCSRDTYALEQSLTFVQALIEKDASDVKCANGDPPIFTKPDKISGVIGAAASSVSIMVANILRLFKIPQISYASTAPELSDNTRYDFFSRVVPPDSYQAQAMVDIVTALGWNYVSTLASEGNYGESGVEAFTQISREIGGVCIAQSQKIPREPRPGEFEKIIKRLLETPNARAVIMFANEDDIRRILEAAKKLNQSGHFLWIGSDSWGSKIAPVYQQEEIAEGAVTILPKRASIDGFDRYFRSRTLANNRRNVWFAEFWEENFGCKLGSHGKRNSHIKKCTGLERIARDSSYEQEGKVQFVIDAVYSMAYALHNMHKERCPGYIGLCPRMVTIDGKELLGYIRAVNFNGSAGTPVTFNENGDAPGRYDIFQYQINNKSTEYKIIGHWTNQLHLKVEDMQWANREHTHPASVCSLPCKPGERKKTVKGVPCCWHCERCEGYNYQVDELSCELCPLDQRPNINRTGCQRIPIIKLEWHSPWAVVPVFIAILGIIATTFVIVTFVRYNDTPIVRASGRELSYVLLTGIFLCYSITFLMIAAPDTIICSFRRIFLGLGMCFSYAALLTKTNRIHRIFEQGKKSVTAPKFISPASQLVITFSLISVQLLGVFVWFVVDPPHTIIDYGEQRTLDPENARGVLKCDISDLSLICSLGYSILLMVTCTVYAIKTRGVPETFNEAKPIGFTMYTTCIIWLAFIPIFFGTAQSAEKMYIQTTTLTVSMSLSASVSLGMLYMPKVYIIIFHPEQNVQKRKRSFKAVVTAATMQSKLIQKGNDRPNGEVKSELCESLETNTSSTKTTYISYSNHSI

Row | SMILES | z-score
1 | O=[N+]([O-])c1ccc2nc(-c3ccccc3)cc(-c3ccccc3)c2c1 | -0.109
2 | N#CC(=C1SC=CS1)c1nc(-c2ccccc2)cs1 | 0.0939
3 | COCC(=O)NC1CCN(S(=O)(=O)c2ccc(C(=O)O)cc2)CC1 | 0.595
4 | CCSc1nc(-c2ccccc2)nc(C(Cl)Cl)n1 | 0.853
5 | COCCNC(=O)c1ccc(CS(=O)(=O)c2ccc(OC)cc2)o1 | -0.306
6 | CCC(C)Sc1nnc(Cc2cc(=O)[nH]c(=O)[nH]2)n1-c1ccc(OC)cc1 (configuration not stated) | 0.424
7 | CCOC(=O)c1ccc(NC(=O)N2CCN(c3ccccn3)CC2)cc1 | -0.176
8 | Cc1ccc(-c2nc(C(=O)NC3CCCCCC3)no2)cc1 | 0.205
9 | CCc1c(C)nc2ncnn2c1Nc1ccc(C(C)=O)cc1 | 0.0606
10 | Cc1noc(C)c1C(=O)N1CCc2ccccc2C1 | 1.98
11 | CCCS/C(N)=N/N=C/c1cc(C)ccc1O | -0.0872
12 | Cc1ccc(-n2ncc3c(SCc4cccc(C)c4)ncnc32)cc1 | 2.66
13 | CCCCN1C(=O)CCC(C(=O)O)C1c1ccc(OC)cc1 (configuration not stated) | 0.142
14 | COc1ccc(-c2nnc(SC3CCOC3=O)n2C2CCCCC2)cc1OC (configuration not stated) | -0.0774
15 | Cc1cccc(C(P(=O)(c2ccccc2)c2ccccc2)P(=O)(c2ccccc2)c2ccccc2)n1 | -0.285
16 | CCNS(=O)(=O)c1ccc2c3c(cccc13)C(=O)N2 | -0.0155
17 | Cc1[nH]c2ccccc2c1C(=O)CN1CCC(C)CC1 | -0.126
18 | O=C1CCc2cc(S(=O)(=O)N3CCC(C(=O)Nc4nccs4)CC3)ccc2N1 | -0.108
19 | CCN(CC)C(=O)CSCC(=O)Nc1ccccc1 | -0.539
20 | Cc1[nH]n2c(=O)cc(Cc3ccccc3)nc2c1C#N | 0.0405
21 | C/C(=N\NC(=O)C(=O)Nc1cccc(C(F)(F)F)c1)c1ccc(Cl)s1 | 0.376
22 | CCC(C)(C)NC(=S)Nc1ccc(-c2nc3ccc(C)cc3s2)cc1 | -0.0204
23 | COc1cccc(-n2nnc3c(=O)n(Cc4ccccc4F)cnc32)c1 | -0.331

Row | SMILES | z-score
24 | CC(C)(C)c1ccc(C(=O)NCC(=O)OCc2ccc([N+](=O)[O-])cc2)cc1 | -0.34
25 | Cc1nnc(N2CCN(c3ccccc3)CC2)[nH]c1=O | -0.24
26 | OC(CNc1ccccc1)COc1ccc(OCC(O)CNc2ccccc2)cc1 (configuration not stated) | -0.0572
27 | CC(C)(C)S(=O)(=O)c1cnc2c(-c3ccc(F)cc3)cnn2c1N | -0.0351
28 | CCn1c(COc2ccccc2)nnc1SCc1ccc(C#N)cc1 | -0.725
29 | COc1cccc(CNC(=O)c2ccccc2N)c1 | 0.158
30 | COc1ccccc1NC(=O)c1ccc(NC(=O)c2cc3c(s2)CCC3)cc1 | -0.346
31 | COc1ccc(-c2cc(CNC(=O)CCl)on2)cc1 | -0.113
32 | Nn1c(SCc2ccccc2)nnc1-c1ccco1 | 0.101
33 | O=S(=O)(c1cccc(-c2nc3ccccc3s2)c1)N1CCCC1 | -0.646
34 | COC(=O)C(NC(C)=O)(Nc1ccccc1)C(=O)OC | 0.073
35 | O=C1S/C(=C\c2ccc(N3CCOCC3)o2)C(=O)N1Cc1c(F)cccc1Cl | -1.67
36 | Nn1c(SCC(=O)NC2CCCCC2)nnc1C1CC1 | 0.0507
37 | O=C(O)C1CC=CCC1C(=O)Nc1cc(Cl)ccc1Cl (configuration not stated) | -0.205
38 | C#CC1(O)CC(C)N(C)C(C)C1 (configuration not stated) | -0.0403
39 | O=C(COC(=O)C1=COCCO1)Nc1ccc(Oc2ccccc2)cc1 | -0.517
40 | CN(CCCC(=O)NCc1ccco1)S(=O)(=O)c1ccccc1 | 2.39
41 | CCOc1cc2c(C#N)c(N3CCNCC3)nc(N)c2c(N)n1 | 0.28
42 | CC(NC(=O)c1cccc2ccccc12)c1ccc2c(c1)CCCC2 (configuration not stated) | -0.156
43 | CCN(CC)S(=O)(=O)c1ccc(/C=C/C(=O)Nc2ccc(F)cc2F)cc1 | -0.319
44 | O=C(Oc1nsnc1N1CCCCC1)N1CCOCC1 | 0.353
45 | COc1ccc(OC)c(N(CC(=O)N2CCC(C)CC2)S(=O)(=O)c2ccc(OC)c(OC)c2)c1 | -0.0262
46 | Cc1[nH]n(-c2ccccc2)c(=O)c1/C=N/N(C)c1ccccc1 | 1.8

Row | SMILES | z-score
47 | O=S(=O)(c1ccc(F)cc1)N1CCn2c(nc3ccccc32)C1 | -0.178
48 | COc1cccc(NC(=O)c2cn(C)c(=O)c3cc(OC)c(OC)cc23)c1 | 0.0835
49 | COCCNC(=O)c1ccccc1-c1nc(-c2ccccc2Cl)no1 | -0.408
50 | Cn1c(=O)n(CC#N)c2ccccc21 | -0.0717
51 | CSc1nc(-c2ccccc2)ccc1C(N)=O | -0.167
52 | CCCC(O)(CCC)C(=O)NN1CCCCC1 | -0.283
53 | Cc1ccc(C(=O)OCn2ncc(Cl)c(Cl)c2=O)cc1 | -1.15
54 | CCCCNc1c(C(=O)OCC)c(=O)[nH]c2ccccc12 | -1.17
55 | CCc1ccc(/C=C2\Oc3cc(OS(C)(=O)=O)ccc3C2=O)cc1 | -0.238
56 | CC1=NNC(=O)C1CCC(=O)N/N=C/C=C/c1ccccc1 (configuration not stated) | 0.079
57 | CCOc1ccc(OCc2ccc(C(=O)N3CCOCC3)cc2)cc1 | -0.107
58 | Cc1ccc(/C=C(/C#N)C(=O)NC(C)c2ccccc2)o1 (configuration not stated) | -0.178
59 | C/C(=N\NC(=O)c1ccc(Br)cc1)c1ccccc1 | 1.2
60 | CCC1(C(=O)c2ccc(Cl)cc2)C2c3ccccc3OC(=O)C21C(=O)Nc1ccccc1 (configuration not stated) | 0.864
61 | O=C(CN1CCN(S(=O)(=O)c2ccc3ccccc3c2)CC1)NC(=O)NC1CCCCC1 | -0.0688
62 | CC(C)Cc1cc(C(=O)Nc2cc(C(F)(F)F)ccc2Cl)no1 | -0.28
63 | Cc1cc2oc(C(=O)Nc3cccnc3)c(C)c2cc1C | -0.221
64 | Cc1ccc(NC(=S)NCCSc2ccc(Cl)cc2)c(C)c1 | 0.032
65 | CCCC(O)(CCC)C(=O)NN(C(=O)CCl)c1cccc(C)c1 | -1.84e-05
66 | CC(C)N1CCC2(CC1)N=C(c1ccc3c(c1)OCO3)CC(c1cc(Cl)ccc1O)N2 (configuration not stated) | 1.97
67 | COc1cc(/C=N/NC(=O)C(=O)NCc2cccnc2)ccc1O | -0.00674
68 | COc1ccc(C(=O)Nc2nc(-c3ccc([N+](=O)[O-])cc3)c(-c3ccccc3)s2)cc1 | 0.086
69 | Cc1ccsc1/C=C1\Oc2cc(OCC(=O)c3ccccc3)ccc2C1=O | -0.00804

Row | SMILES | z-score
70 | CCOc1ccc(-c2nc(-c3ccc(OC)c(OC)c3)no2)cc1OCC | active: 4.75
71 | Cc1ccc(NS(=O)(=O)c2cc(C(=O)Nc3cccc(N(C)S(C)(=O)=O)c3)ccc2C)c(C)c1 | -0.372
72 | O=C(CCCCCN1C(=O)C2C3C=CC(C3)C2C1=O)Nc1nccs1 (configuration not stated) | 0.0543
73 | Cc1ccc2[nH]c(=O)c(CN(Cc3ccco3)C(=O)c3cccs3)cc2c1 | -0.0752
74 | O=C1NC(=Nc2ccc(Cl)cc2)SC1Cc1cc(Cl)ccc1Cl (configuration not stated) | 0.0493
75 | Cc1cc(NC(=O)c2cccc(F)c2)ncc1NC(=O)c1ccco1 | -0.415
76 | O=C(NCCCN1CCOCC1)c1ccc(Sc2ccc(Br)cc2)c([N+](=O)[O-])c1 | -0.19
77 | Cc1csc(N/N=C/c2ccc(O)c([N+](=O)[O-])c2)n1 | -0.883
78 | CCc1cc(=O)oc2cc(OCC(=O)OC)c(Cl)cc12 | -0.459
79 | Cc1ccc(-c2cc(C(F)F)n3ncc(C(=O)Nc4c(C)nn(Cc5c(Cl)cccc5Cl)c4C)c3n2)cc1 | -0.725
80 | CCCn1[nH]cc(SC)c(=O)c1=O | -0.194
81 | COC(=O)c1[nH]c2cccc(OC)c2c1NC(=O)CCN1CCC(C(N)=O)CC1 | -0.133
82 | Cc1cc(-c2ccccc2)n2nc(C)c(-c3ccccc3)c2n1 | 0.174
83 | Cc1c(NC(=O)C2CC(c3ccc(F)cc3)=NO2)c(=O)n(-c2ccccc2)n1C (configuration not stated) | -0.453
84 | COc1ccccc1OCC(=O)O | -0.241
85 | O=C1c2ccccc2C(=O)N1Cc1cc(-c2ccccc2Cl)no1 | 0.00769
86 | O=C(NNc1c2ccccc2nc2ccccc12)c1ccc(O)cc1O | 0.0188
87 | COc1ccc(C(=O)CCNc2ccc(C)c(Cl)c2)cc1 | -0.153
88 | CCN(CC(=O)NC)S(=O)(=O)c1ccc(C)cc1 | -0.267
89 | CN(CCOc1ccc(-c2ccn(S(=O)(=O)c3cccc4ccccc34)n2)cc1)c1ccccn1 | 0.0221
90 | CC1CC(C)CN(c2ccc(-n3cnnn3)cc2[N+](=O)[O-])C1 (configuration not stated) | 0.222
91 | CCOC(=O)COc1ccc(/C=C2/SC(=Nc3ccccc3)N(Cc3cccnc3)C2=O)cc1OC | -0.115
92 | COc1ccc(CNC(=O)/C=C/c2cc3c(cc2Br)OCO3)cc1 | -0.217

Row | SMILES | z-score
93 | O=S(=O)(NC1CCCCC1)c1ccc(Cl)s1 | -0.156
94 | CC(c1ccccc1)N1C(=O)c2ccccc2C1O (configuration not stated) | -0.0425
95 | CSc1nc2sc3c(c2c2nnnn12)CC(C)(C)OC3 | 0.065
96 | Oc1ccc(CNc2ccccc2O)cc1 | -0.105
97 | COc1ccc(N2CCN(C(CNC(=O)C(=O)NCCc3c[nH]c4ccccc34)c3ccco3)CC2)cc1 (configuration not stated) | 0.149
98 | COc1cccc(C2C(C(=O)Nc3ccccc3)=C(C)N=c3s/c(=C/c4ccc(OCC(=O)O)cc4)c(=O)n32)c1 (configuration not stated) | 0.0375
99 | Nc1[nH]n(-c2ccccc2)c(=O)c1N=Nc1ccccc1[N+](=O)[O-] | -0.139
100 | O=C(Oc1ccccc1OC(=O)N1CCOCC1)N1CCOCC1 | -0.307
101 | O=C(c1ccc(S(=O)(=O)N2CCCC2)cc1)N1CCN(Cc2ccc3c(c2)OCO3)CC1 | 0.0297
102 | O=C(COc1ccccc1)N1CCN(S(=O)(=O)Cc2ccccc2)CC1 | 0.0406
103 | Cc1ccc(S(=O)(=O)CCc2nnc(N)s2)cc1 | 0.028
104 | CCCC1=[N+](CC)CCn2c(C)ccc21 | -0.263
105 | Cc1ccc(C)c(N2CCN(C(=O)CNS(=O)(=O)c3cccs3)CC2)c1 | 0.0118
106 | CCOc1cc(C(=O)OCC(=O)Nc2ncc(Cl)c(C)c2Cl)ccc1OCC(=O)N1CCOCC1 | -0.168
107 | COC(=O)c1[nH]c2cc(OC)ccc2c1NC(=O)CN1CCC(C(N)=O)(N2CCCCC2)CC1 | 0.0409
108 | CCc1ccc(NC(=O)COC(=O)/C(=C/c2ccccc2OC)c2ccccc2)cc1 | -0.145
109 | COc1ccccc1OCCCn1c(C)c(C#N)c2ccccc21 | -0.455
110 | CCC1SC(N)=NC1=O (configuration not stated) | 0.0857
111 | CCN(CC)CCNC(=O)C(C)c1nn(CC)c(=O)c2ccccc12 (configuration not stated) | -0.00501
112 | COc1nccnc1NS(=O)(=O)c1ccc(N=Cc2c(C)[nH]n(-c3ccc(C)c(C)c3)c2=O)cc1 | 1.41

Source: PubChem BioAssay AID488969 (Vanderbilt High Throughput Screening Facility, 2010)
